Measurements taken from PubChem BioAssay AID624255 (Broad Institute, 2012).
Values joined by “and” are separate entries in the source; they are usually repeats but may differ in a detail not shown here. Equal values may be shown once. Screen size: about 77,000 compounds; about 4,600 (6%) were called active. The inconclusive results got no clear call from the source; some entries with a clear call stand among them for comparison.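 The calls were made as follows: active = mean inhibition above about 93%, with at least 55% of replicates each passing it (limit read from the data, passing the limit was not always enough); inconclusive = only one of those two conditions holds; inactive = neither condition holds.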

Experiment: T. cruzi intracellular proliferation inhibitors, primary screen, cell-based, beta-gal Tulahuen parasites, NIH3T3 host, luminescence (AID 624255)
Conditions: T. cruzi beta-gal in NIH3T3, GalScreen luminescence, 90 h; at 8.34 µM; hits give high values

Structure (SMILES)	inhibition
C[C@H](CO)N1C[C@H](C)[C@H](CN(C)Cc2ccc3c(c2)OCO3)Oc2ccc(NC(=O)NC3CCCCC3)cc2C1=O	active: 100%
COc1cccc(NC(=O)N(C)C[C@H]2Oc3cc(C#Cc4ccc(F)cc4)ccc3S(=O)(=O)N([C@@H](C)CO)C[C@@H]2C)c1	inconclusive: 81%
Cc1ccc(S(=O)(=O)Nc2ccc3c(c2)C(=O)N([C@@H](C)CO)C[C@@H](C)[C@H](CN(C)C(=O)Nc2ccc(F)cc2)OCCCC[C@@H](C)O3)cc1	inconclusive: 96%
C[C@@H]1CN([C@H](C)CO)C(=O)CCCn2cc(nn2)CO[C@H]1CN(C)C(=O)Nc1ccc2c(c1)OCCO2	inactive: -2.76% and inactive: -4.54%
CC(C)NC(=O)Nc1cccc2c1O[C@H](CN(C)C(=O)Nc1cccc3ccccc13)[C@H](C)CN([C@H](C)CO)C2=O	inactive: 30.6%
CO[C@@H]1CN(C)C(=O)c2cc(NS(=O)(=O)c3cccc(F)c3)ccc2OC[C@@H](C)N(Cc2cc(F)ccc2F)C[C@H]1C	inconclusive: 97.4%
O=S(=O)(c1cccs1)N1CCCCN2[C@H](CO)[C@H](c3ccc(Br)cc3)[C@@H]2C1	active: 114%
COc1cccc(C#Cc2ccc3c(c2)O[C@H](CN(C)C(=O)c2ccccn2)[C@H](C)CN([C@H](C)CO)S3(=O)=O)c1	inconclusive: 108%
O=S(=O)(Cc1ccccc1)N1CCCCN2[C@@H](CO)[C@@H](c3ccc(-c4cccnc4)cc3)[C@@H]2C1	inactive: 89.3%
O=S(=O)(c1ccccc1)N1CC[C@@H]2[C@H]1c1cc(C#Cc3cccc(F)c3)ccc1N[C@@H]2CO	active: 102%
Cc1noc(C)c1NC(=O)Nc1ccc2c(c1)C(=O)N(C)[C@@H]1CC[C@@H](CC(=O)N[C@H]3CCN(Cc4ccccc4)C3)O[C@H]1CO2	active: 102%
COCC(=O)N1CC[C@@H]2[C@@H](CO)Nc3ccc(-c4cccc(C#N)c4)cc3[C@@H]21	inconclusive: 95.2%
C[C@@H]1CN([C@H](C)CO)C(=O)c2cc(NS(=O)(=O)c3ccc(Cl)cc3)ccc2O[C@@H]1CN(C)Cc1ccc(C(F)(F)F)cc1	active: 128%
CCC(=O)N(C)C[C@@H]1Oc2cc(C#CCC(C)C)ccc2S(=O)(=O)N([C@@H](C)CO)C[C@@H]1C	inactive: 38.6%
C[C@H]1CN([C@@H](C)CO)C(=O)c2cc(NS(=O)(=O)c3ccc(F)cc3)ccc2O[C@@H]1CN(C)Cc1ccc(-c2ccccc2)cc1	inconclusive: 110%
C[C@@H]1CCCCO[C@H](CN(C)Cc2ccc(C(F)(F)F)cc2)[C@H](C)CN([C@@H](C)CO)C(=O)c2cc(NC(=O)Nc3cccc4ccccc34)ccc2O1	inconclusive: 125%
C[C@@H]1CCCCO[C@@H](CN(C)Cc2ccncc2)[C@H](C)CN([C@H](C)CO)C(=O)c2cc(NS(=O)(=O)c3ccc(Cl)cc3)ccc2O1	inconclusive: 96.1%
C[C@@H]1CCCCO[C@@H](CN(C)S(=O)(=O)c2cccs2)[C@H](C)CN([C@H](C)CO)C(=O)c2cc(NC(=O)Nc3ccc(F)cc3)ccc2O1	inconclusive: 95.8%
C[C@@H]1CN([C@H](C)CO)C(=O)c2cc(NC(=O)Nc3ccc(C(F)(F)F)cc3)ccc2O[C@@H](C)CCCCO[C@H]1CN(C)Cc1ccc2c(c1)OCO2	inconclusive: 122%

Structure (SMILES)	inhibition
O=C(Nc1ccc(F)cc1)N1CCCCN2[C@H](CO)[C@H](c3ccc(C4=CCCCC4)cc3)[C@@H]2C1	active: 118%
COc1ccc(C#Cc2ccc([C@H]3[C@@H](CO)N4CCCCN(S(=O)(=O)c5ccccc5)C[C@@H]34)cc2)cc1	active: 103%
Cc1ccc(S(=O)(=O)Nc2ccc3c(c2)C(=O)N([C@@H](C)CO)C[C@H](C)[C@H](CN(C)S(=O)(=O)c2ccc(F)cc2)OCCCC[C@@H](C)O3)cc1	inconclusive: 95%
O=C(C[C@H]1CC[C@H]2[C@@H](COC[C@H](O)CN2Cc2cccc(Cl)c2)O1)Nc1nccs1	active: 133%
C[C@@H]1CCCCO[C@H](CN(C)S(=O)(=O)c2cccs2)[C@H](C)CN([C@H](C)CO)C(=O)c2cc(NS(=O)(=O)c3ccc(F)cc3)ccc2O1	inconclusive: 98.3%
C[C@@H]1CN([C@@H](C)CO)C(=O)c2cc(NC(=O)c3ccccc3)ccc2O[C@@H](C)CCCCO[C@@H]1CN(C)C(=O)Nc1ccc(C(F)(F)F)cc1	inconclusive: 95.7%
O=C(C1CCCC1)N1CCCCN2[C@@H](CO)[C@H](c3ccc(C#CC4(O)CCCC4)cc3)[C@@H]2C1	inconclusive: 96.7%
CO[C@H]1CN(C)C(=O)c2cc(NC(=O)Nc3ccc(Cl)c(Cl)c3)ccc2OC[C@@H](C)NC[C@@H]1C	inactive: -72.6%
COc1ccc(S(=O)(=O)N(C)C[C@@H]2Oc3c(NC(=O)c4nc5ccccc5s4)cccc3C(=O)N([C@H](C)CO)C[C@@H]2C)cc1	active: 112%
C[C@H](CO)N1C[C@H](C)[C@H](CN(C)S(=O)(=O)c2ccccc2)Oc2ccc(NC(=O)CCC(F)(F)F)cc2CC1=O	inactive: 23.5%
C[C@H](CO)N1C[C@H](C)[C@H](CN(C)C(=O)Cc2ccccc2)OCCCC[C@H](C)Oc2ccc(NC(=O)NC3CCCCC3)cc2C1=O	inactive: 12.6%
COc1ccc(C#Cc2ccc3c(c2)[C@H]2[C@H](CCN2C(=O)CC2CC2)[C@H](CO)N3)cc1	inconclusive: 95.4%
C[C@@H]1CN([C@@H](C)CO)S(=O)(=O)c2ccc(C3=CCCC3)cc2O[C@H]1CN(C)Cc1cccnc1	inconclusive: 99.3%
O=C(NC1CCCC1)N1CCCCN2[C@@H](CO)[C@@H](c3ccc(-c4ccccc4)cc3)[C@@H]2C1	inconclusive: 95.1%
CC(C)C#Cc1ccc([C@@H]2[C@H](C#N)N(C(=O)c3cccc(F)c3)[C@H]2CO)cc1	inconclusive: 95.6%
COc1ccccc1CNC(=O)C[C@H]1C[C@H]2c3cc(NC(=O)CC4CC4)ccc3O[C@H]2[C@@H](CO)O1	inactive: 19.9%
COc1ccc(CN(C)C[C@@H]2OCCCC[C@H](C)Oc3ccc(NS(=O)(=O)c4ccc(Cl)cc4)cc3C(=O)N([C@H](C)CO)C[C@H]2C)cc1	inconclusive: 102%
C[C@H]1CN([C@@H](C)CO)S(=O)(=O)c2ccc(-c3ccncc3)cc2O[C@@H]1CN(C)C(=O)Nc1ccc(F)cc1	active: 105%
C[C@@H]1CN([C@@H](C)CO)C(=O)c2cc(-c3ccc(F)cc3)cnc2O[C@H]1CN(C)C(=O)c1ccccc1F	inactive: -176%

Structure (SMILES)	inhibition
COc1ccc(CNC(=O)c2cc3c(c(-c4cccc(-c5ccc(C#N)cc5)c4)n2)[C@H](CCO)N([S@@](=O)C(C)(C)C)C3)cc1	inconclusive: 95.6%
CCCC#Cc1ccc2c(c1)O[C@@H](CN(C)Cc1ccccn1)[C@H](C)CN([C@H](C)CO)S2(=O)=O	inconclusive: 96.5%
CCNC(=O)[C@H]1[C@H](CO)[C@H]2Cn3c(ccc(-c4ccccc4)c3=O)[C@@H]1N2Cc1cccnc1	inactive: 6.77%
COC(=O)C[C@@H]1CC[C@H]2[C@@H](COc3ccc(NC(=O)c4ccccc4OC)cc3C(=O)N2C)O1	inactive: 65.2%
C[C@H](CO)N1C[C@H](C)[C@@H](CN(C)C(=O)Nc2cc(F)ccc2F)Oc2cc(C#CC3CC3)ccc2S1(=O)=O	active: 114%
COCC#Cc1ccc([C@H]2[C@H](CO)N3CCCCN(S(=O)(=O)c4ccc(OC)cc4)C[C@@H]23)cc1	inconclusive: 109%
C[C@@H]1CCCCO[C@H](CN(C)Cc2ccccc2)[C@@H](C)CN([C@@H](C)CO)C(=O)c2cc(NC(=O)Nc3ccc(F)cc3)ccc2O1	inconclusive: 103%
C[C@H]1CN([C@@H](C)CO)S(=O)(=O)c2ccc(-c3ccccc3F)cc2O[C@H]1CN(C)Cc1cccnc1	active: 95.4%
CCCNC(=O)N1C[C@H]2[C@@H](c3ccccc31)[C@H](CO)N2Cc1cc(F)ccc1F	inactive: 32.9%
COc1ccc(-c2ccc([C@@H]3[C@@H](CO)N(C(=O)NC4CCCC4)[C@H]3C#N)cc2)cc1	inconclusive: 97.7%
C[C@@H]1CN([C@H](C)CO)C(=O)c2cc(NC(=O)Nc3cccc4ccccc34)ccc2O[C@@H](C)CCCCO[C@@H]1CN(C)Cc1ccc2c(c1)OCO2	inconclusive: 109%
C/C=C/c1ccc2c(c1)O[C@H](CN(C)C(=O)Nc1ccc(C(F)(F)F)cc1)[C@@H](C)CN([C@H](C)CO)S2(=O)=O	inconclusive: 95.6%
COc1ccc(S(=O)(=O)Nc2ccc3c(c2)CC(=O)N([C@H](C)CO)C[C@@H](C)[C@H](CN(C)Cc2ccc(C(F)(F)F)cc2)O3)cc1	inconclusive: 97%
Cc1ccc(S(=O)(=O)Nc2cccc3c2O[C@@H](CN(C)C(=O)Nc2ccccc2)[C@@H](C)CN([C@@H](C)CO)C3=O)cc1	inactive: 87.6%
C[C@H](O)C#Cc1ccc([C@H]2[C@H]3CN(S(=O)(=O)c4ccccc4)CCCCN3[C@H]2CO)cc1	inconclusive: 95.9%
C[C@H](CO)N1C[C@H](C)[C@@H](CN(C)Cc2ccc(Oc3ccccc3)cc2)Oc2c(NC(=O)C3CCCCC3)cccc2C1=O	inconclusive: 104%
COc1ccc(S(=O)(=O)N[C@@H]2C=C[C@H](CC(=O)N3CCC(Cc4ccccc4)CC3)O[C@@H]2CO)cc1	inconclusive: 99.7%
N#C[C@H]1[C@@H](c2ccc(C#CC3CC3)cc2)[C@H](CO)N1S(=O)(=O)c1ccccc1	active: 101%
C[C@@H]1CN([C@@H](C)CO)C(=O)c2cc(C3=CCCC3)cnc2O[C@H]1CN(C)C(=O)Nc1ccc(C(F)(F)F)cc1	active: 98.6%
